Consider 67 molecules from the supplement of paper PMC2702839.

Molecules are shown by their SMILES. Structures can show the parent of a compound that is named as a salt. Some of the results follow.

The subject of the experiment is Schistosoma mansoni schistosomula. Nature of the experiment: phenotypic hit in primary schistosomula screen (any phenotype vs DMSO control) (binary (1 = hit, 0 = no phenotype)); higher = active (phenotype induced). As to conditions: 1 µM; time (d): 7.
`Cn1c([N+](=O)[O-])cnc1COC(N)=O` [ronidazole]: the phenotypic hit was inactive: 0.
Turning to `COC(=O)[C@@H]1OC(=O)C2OC23[C@@]1(C)CCC1[C@@]2(C)CCC(=O)C(C)(C)C2C[C@@H](OC(C)=O)[C@]13C` (some centres not stated) [dihydrogedunic acid, methyl ester], the phenotypic hit is inactive: 0.
In the case of `N[C@@H](C(=O)N[C@@H]1C(=O)N2C(C(=O)O)=C(Cl)CS[C@H]12)c1ccccc1` [cefaclor], the phenotypic hit was inactive: 0.
The figure for `CC(Oc1ccccc1)C(=O)N[C@@H]1C(=O)N2[C@@H]1SC(C)(C)[C@@H]2C(=O)O` (some centres not stated) [phenethicillin potassium] is inactive: 0; for `O=C(O)c1cc(O)c2ccc(Cl)cc2n1` [7-Chlorokynurenic acid] it is inactive: 0; for `C[C@@H]1CC[C@@]2(OC1)O[C@H]1C[C@H]3[C@@H]4CC[C@@H]5C[C@@H](O)CC[C@]5(C)[C@H]4CC[C@]3(C)[C@H]1[C@@H]2C` [smilagenin] it is active: 1.
For `OC[C@H]1O[C@@H](O[C@@H]2[C@@H](CO)OC(O)(CO)[C@H]2O)[C@H](O)[C@@H](O)[C@H]1O` (mixture of isomers) [lactulose] the value was inactive: 0.
For `COC(=O)C[C@H]1C(C)(C)C(=O)[C@H]2CC3=C4CC(OC)O[C@@H](c5ccoc5)[C@@]4(C)CCC3[C@]1(C)C2=O` (some centres not stated) [16-deoxomexicanolide 16-methyl ether] the value was inactive: 0; for `Cc1cc(=O)c2c(O)c3c(cc2o1)OC(C)(C)CC3` [dihydrospatheliachromene], inactive: 0.
Consider `Cc1cc(O)c(C=O)c2c1C(=O)Oc1c(COC(=O)/C=C/C(=O)O)c(O)c(C(=O)O)c(C)c1O2` [fumarprotocetraric acid], for which the phenotypic hit is inactive: 0.
The figure for `CN(C)CCOC(=O)COc1ccc(Cl)cc1` [meclofenoxate hydrochloride] is inactive: 0; for `CC(=O)O[C@@H]1C[C@H]2C(C)(C)CCC(=O)[C@]2(C)[C@H]2CC[C@@]3(C)[C@H](c4ccoc4)OC(=O)[C@H]4O[C@]43[C@@]21C` [2,3-dihydroisogedunin] it is inactive: 0.
For `O=C(OCc1ccccc1)c1ccccc1` [benzyl benzoate] the value was active: 1; for `OC(CCN1CCCCC1)(c1ccccc1)C1CCCCC1` (configuration not stated) [Trihexyphenidyl hydrochloride], inactive: 0; for `N=C(N)N/N=C/c1c(Cl)cccc1Cl` [guanabenz acetate], inactive: 0.
Take `CN(C)CC[C@@H](c1ccc(Cl)cc1)c1ccccn1` [chlorpheniramine (s) maleate]: the phenotypic hit is inactive: 0.
For `CN(CCOc1ccc(CC2SC(=O)NC2=O)cc1)c1ccccn1` (configuration not stated) [rosiglitazone] the value was inactive: 0; for `Nc1cc(-c2ccncc2)c[nH]c1=O` [amrinone], inactive: 0.
`CC1(C)CC[C@]2(C(=O)O)[C@H](O)C[C@]3(C)C(=CC[C@@H]4[C@@]5(C)CC[C@H](O)C(C)(C)[C@@H]5CC[C@]43C)[C@H]2C1` [echinocystic acid]: the phenotypic hit is inactive: 0.
Regarding `CC(=O)OC1CCC2(O)CC1(C)CCC1C2CC1(C)C` (configuration not stated) [senecrassidiol 6-acetate], the phenotypic hit is inactive: 0.
For `COC(=O)C(N)CS` (configuration not stated) [mecysteine hydrochloride] the value was inactive: 0; for `CN1CC(=O)NC1=N` [creatinine], inactive: 0; for `NCCCCNCCCN` [spermidine trihydrochloride], inactive: 0.
For `COC(=O)C[C@H]1C(C)(C)[C@@H](OC(C)=O)[C@]2(OC(C)=O)CC3=C4CC(=O)O[C@@H](c5ccoc5)[C@]4(C)CCC3[C@@]1(C)C2OC(C)=O` (some centres not stated) [2-dihydrofissinolide acetate] the value was inactive: 0; for `CC(=O)N(O)CCCCCNC(=O)CCC(=O)N(O)CCCCCNC(=O)CCC(=O)N(O)CCCCCN` [deferoxamine mesylate], inactive: 0.
The figure for `C=CC(C)(O)CCC1C(=C)CC(O)C2C(C)(C)CCCC12C` (configuration not stated) [larixol] is inactive: 0.
`CC(=O)OC1CC[C@@]2(C)C(CC[C@H]3[C@@H]4CC=C(C(C)=O)[C@@]4(C)C(=O)C[C@@H]32)C1` (some centres not stated) [3-acetoxypregn-16-en-12,20-dione]: the phenotypic hit was inactive: 0.
For `C[C@@H]1[C@H](O)[C@@H](C)/C=C/C=C/C=C/C=C/C=C/C=C/C=C/[C@H](O[C@@H]2O[C@H](C)[C@@H](O)[C@H](N)[C@@H]2O)C[C@@H]2O[C@](O)(C[C@@H](O)C[C@@H](O)[C@H](O)CC[C@@H](O)C[C@@H](O)CC(=O)O[C@H]1C)C[C@H](O)[C@H]2C(=O)O` [amphotericin b] the value was active: 1; for `CO[C@@]1(NC(=O)CSCC#N)C(=O)N2C(C(=O)O)=C(CSc3nnnn3C)CS[C@@H]21` [cefmetazole sodium], inactive: 0.
For `CCOC(=O)C(C)(C)Oc1ccc(Cl)cc1` [Clofibrate] the value was inactive: 0.
For `CN1CCc2cccc3c2[C@H]1Cc1ccc(O)c(O)c1-3` [apomorphine hydrochloride] the value was inactive: 0; for `C[C@]12CCC3c4ccc(OC(=O)CCC(=O)O)cc4CCC3C1CCC2=O` (some centres not stated) [estrone hemisuccinate], inactive: 0.
In the case of `CCC(Cc1c(I)cc(I)c(N)c1I)C(=O)O` (configuration not stated) [iopanic acid], the phenotypic hit is inactive: 0.
For `C[C@]12CC[C@@H]3c4ccc(O)cc4CC[C@H]3[C@@H]1CC[C@@H]2OC(=O)CCC1CCCC1` [estradiol cypionate] the value was inactive: 0; for `O=C1C=C2CC3(O)COc4c(ccc(O)c4O)C3=C2C=C1O` (configuration not stated) [hematein], inactive: 0.
For `CN1CCN(C2=Nc3cc(Cl)ccc3Nc3ccccc32)CC1` [Clozapine] the value was inactive: 0; for `CC1=CC(=O)c2c(O)c(O)c(O)c3c(O)c4c(c1c23)O[C@H](C)C4(C)C` [atrovenetin], inactive: 0.
The figure for `C=C1C2CC[C@@]3(C)[C@H](c4ccoc4)OC(=O)C[C@]13O[C@H]1CC(O)C(C)(C)C(CC(=O)OC)[C@@]21C` (stereo partly drawn) [3alpha-hydroxy-3-deoxyangolensic acid methyl ester] is inactive: 0; for `COc1c(O)cc2c(-c3ccccc3)cc(=O)oc2c1OC` [kuhlmannin] it is inactive: 0; for `N=C1C=CC(=C(c2ccc(N)cc2)c2ccc(N)cc2)C=C1` [pararosaniline pamoate] it is active: 1.
`Cc1cc(=O)n(-c2ccccc2)n1C` [antipyrine]: the phenotypic hit was inactive: 0.
For `Clc1ccc(COC(Cn2ccnc2)c2ccc(Cl)cc2Cl)c(Cl)c1` (configuration not stated) [miconazole nitrate] the value was active: 1; for `NC12CC3CC(CC(C3)C1)C2` [Amantadine hydrochloride], inactive: 0; for `COc1cc(O)c2c(=O)c(O)c(-c3ccc(O)c(O)c3)oc2c1` [rhamnetin], inactive: 0.
Take `CC(=O)NO` [acetohydroxamic acid]: the phenotypic hit was inactive: 0.
For `COc1ccc(-c2c(O)c3c(OC)c4c(cc3oc2=O)OC(C)(C)C=C4)cc1` [robustic acid] the value was inactive: 0; for `CC(C)(Oc1ccc(Cl)cc1)C(=O)O` [clofibric acid], inactive: 0.
The figure for `CN1CCCN=C1COC(=O)C(O)(c1ccccc1)C1CCCCC1` (configuration not stated) [oxyphencyclimine hydrochloride] is inactive: 0; for `CCCCCCCCCCC[C@@H](C[C@@H]1OC(=O)[C@H]1CCCCCC)OC(=O)[C@H](CC(C)C)NC=O` [orlistat] it is inactive: 0; for `CC(=O)Oc1c(-c2ccccc2)oc2c(CC=C(C)C)c3c(c(OC(C)=O)c2c1=O)C=CC(C)(C)O3` [sericetin diacetate] it is inactive: 0.
For `O=C1O[C@H](CO)[C@@H](O)[C@H](O)[C@H]1O` [gluconolactone] the value was inactive: 0; for `CC(=O)N[C@@H](CC(=O)O)C(=O)O` [n-acetylaspartic acid], inactive: 0; for `COc1cc(C/C=C/c2ccccc2)c(OC)cc1O` [violastyrene], inactive: 0.
Regarding `CO[C@H]1C[C@H](O[C@H]2[C@H](C)[C@@H](O[C@@H]3O[C@H](C)C[C@H](N(C)C)[C@H]3OC(C)=O)[C@@H](C)C[C@@]3(CO3)C(=O)[C@H](C)[C@@H](OC(C)=O)[C@@H](C)[C@@H](C)OC(=O)[C@@H]2C)O[C@@H](C)[C@@H]1OC(C)=O` [troleandomycin], the phenotypic hit is inactive: 0.
For `CC(C)(S)[C@@H](N)C(=O)O` [penicillamine] the value was inactive: 0; for `CC(=O)Oc1c(Cl)c(C)c2c(c1Cl)OC(=O)c1c(C)c(Cl)c(OC(C)=O)c(Cl)c1O2` [nordiploicin diacetate], inactive: 0.
For `CC(=O)NCCc1c[nH]c2ccc(O)cc12` [acetylserotonin] the value was inactive: 0; for `CN1CCC(=C2c3ccccc3CC(=O)c3sccc32)CC1` [ketotifen fumarate], inactive: 0; for `CCCN(CCC)C(=O)C(CCC(=O)O)NC(=O)c1ccccc1` (configuration not stated) [Proglumide], inactive: 0.
As to `CCCCC[C@H](CC(=O)O)C(=O)O` [nonic acid], the phenotypic hit is inactive: 0.
For `CC[C@H](CC[C@@H](C)[C@H]1CC[C@H]2[C@@H]3CC=C4C[C@@H](O)CC[C@]4(C)[C@H]3CC[C@]12C)C(C)C` [beta-sitosterol] the value was inactive: 0.
For `CC(C)(Sc1cc(C(C)(C)C)c(O)c(C(C)(C)C)c1)Sc1cc(C(C)(C)C)c(O)c(C(C)(C)C)c1` [probucol], the phenotypic hit was inactive: 0.
For `COc1cc(-c2coc3cc(OC)c(OC)c(OC)c3c2=O)cc(OC)c1OC` [irigenin trimethyl ether] the value was inactive: 0; for `Cn1ccnc1S` [methimazole], inactive: 0.
For `Oc1ccc(Cl)c2cccnc12` [cloxyquin] the value was inactive: 0.
For `Nc1c(Br)cc(Br)cc1CN[C@H]1CC[C@H](O)CC1` [ambroxol hydrochloride] the value was inactive: 0.
Turning to `C[C@]12CCC3c4ccc(OC(=O)c5ccccc5)cc4CCC3C1CCC2=O` (some centres not stated) [estrone benzoate], the phenotypic hit is inactive: 0.
